In PubChem BioAssay AID1240 (Sanford-Burnham Center for Chemical Genomics, 2008):
The campaign covered roughly 50,000 compounds. About 800 (1.6%) showed an effect of 50% or more. The list shows a part of the results.

molecular target: Bcl-2-like protein 10 (Homo sapiens) (UniProt Q9HD36); test: Phenotype converters, Bcl-B/TR3 peptide binding displacement, primary biochemical FP (AID 1240); details: GST-Bcl-B / FITC-TR3 peptide fluorescence polarization; stronger effect = higher value; compound at 3.75 mg/L;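 note: 0% = Bcl-B with tracer peptide and DMSO and 100% = tracer peptide lacking Bcl-B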
Sequence of UniProt Q9HD36 (Q9HD36 whole entry, looked up): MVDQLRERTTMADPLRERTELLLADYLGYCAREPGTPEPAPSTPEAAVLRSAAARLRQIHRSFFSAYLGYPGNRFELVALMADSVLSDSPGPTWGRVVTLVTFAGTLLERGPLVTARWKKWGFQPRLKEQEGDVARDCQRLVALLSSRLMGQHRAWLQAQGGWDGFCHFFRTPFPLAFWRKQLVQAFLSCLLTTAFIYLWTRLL

Structure (SMILES) | displacement [%]
Cc1[nH]c2ccccc2c1C=Nc1ccccc1C(=O)Nc1ccccc1 | 0.3
CCOc1ccc(N2C(=O)/C(=C/c3ccc(C(=O)O)cc3)SC2=S)cc1 | -1.6
CC1=C(C(=O)Nc2ccc(Cl)cc2)Sc2ccccc2N1 | 27.8
C=CCNC(=S)NNC(=O)CCn1c2ccccc2c2ccccc21 | 1.9
CC1CCN(CCCCOc2ccccc2Br)CC1 | -6
CC1(C)OC2OC(COCc3ccccc3)C3OC(C)(C)OC3C2O1 (stereo not drawn) | 15.4
CN(C)c1ccc(NS(=O)(=O)c2ccc(Cl)cc2)cc1 | 10.5
COCCNC(=O)COc1ccccc1C | -4.3
Cc1onc(-c2ccccc2)c1C(=O)NCc1ccc(Cl)c(Cl)c1 | -33.4
CC(Cc1ccccc1)C(=O)Nc1ccc(Cl)cc1 (stereo not drawn) | 6.5
CCOC(=O)c1cccc(NC(=O)/C=C/c2ccccc2Cl)c1 | 15.5
COc1cc(C)cc2oc(=O)cc(C)c12 | -10
C=C(C)COc1ccc2c(C)cc(=O)oc2c1 | -22.4
COc1ccc(-c2nc(-c3cccnc3)no2)cc1 | -8
O=[N+]([O-])c1cccc(-c2csc(N/N=C\c3ccccc3O)n2)c1 | -15.3
O=C(Nc1ccccc1C(F)(F)F)c1ccc(Cl)cc1Cl | -12.7
Cc1ccc(-n2ncnc2-c2ccc(Br)cc2)cc1Cl | 2.2
CCCC(=O)Nc1ccc(NC(=O)C(C)(c2ccccc2)c2ccccc2)cc1 | 3.4
CC1CCN(C(=S)Nc2ccc(F)cc2)CC1 | -0.2
O=C(O)c1cccc(NC(=O)c2cccc(F)c2)c1 | -1.4
COC(=O)c1ccc(N(S(=O)(=O)c2ccc(NC(C)=O)cc2)S(=O)(=O)c2ccc(NC(C)=O)cc2)cc1 | 10.9
Cc1cc(OCC(=O)NC2CC(C)(C)NC(C)(C)C2)ccc1Br | 27.2
O=C(COc1ccc([N+](=O)[O-])cc1)Nc1ccc2nn(-c3ccc(F)cc3)nc2c1 | 9
CCCCOc1ccc2c3c(c(=O)oc2c1)CCCC3 | -7.7
CSc1nc2c(c(=O)n1C)C(C)(C)Cc1ccccc1-2 | -3.3

Structure (SMILES) | displacement [%]
O=C(COc1ccc(Cl)cc1)Nc1ccc(N2CCCCC2)c(Cl)c1 | -5.2
O=S(=O)(c1ccc(Cl)cc1)N1CCN(Cc2ccccn2)CC1 | -6
COc1ccc(C2C(C(=O)/C=C/c3ccccc3)=C(O)C(=O)N2CCCCCC(=O)O)c(OC)c1 (stereo not drawn) | -5.2
CCOc1ccc(C2C(C(=O)OC)=CNC=C2C(=O)OC)cc1 | 44.5
COC(=O)c1ccc2c(c1)-c1ccc(C(=O)OC)c3cccc-2c13 | 11.6
O=C1c2ccccc2-c2nc3ccc([N+](=O)[O-])cc3nc21 | -0.9
CN(C)CCNC(=S)NC(=O)C12CC3CC(CC(C3)C1)C2 | -9.3
FC(F)(F)c1ccccc1C=NN1CCN(Cc2ccccc2Cl)CC1 | -10.8
Cc1cc(C(=O)Nc2c[nH]c(=O)[nH]c2=O)ccc1[N+](=O)[O-] | 8.2
Nc1nnc(SCC(=O)NCCOc2ccccc2)s1 | -0.6
CCOc1ccc(N(CC(=O)NCCSCc2ccc(C)cc2)S(C)(=O)=O)cc1 | 4.1
CC(C)(C)C(=O)Nc1nnc(-c2ccccc2)s1 | -0.9
O=C(O)c1nn(-c2ccccc2)c(=O)c2ccccc12 | -8.4
COc1ccc(C2/C(=C(\O)c3ccccc3)C(=O)C(=O)N2CCCCCC(=O)O)cc1OC (stereo not drawn) | 0.9
Cc1cc(C)n2c(SCc3cccc(Oc4ccccc4)c3)nnc2n1 | -11.2
CC1=C(C(=O)Nc2ccccc2)C(c2ccc([N+](=O)[O-])cc2)NC(=S)N1 (stereo not drawn) | 2.7
CCSCCOC(=O)C1=C(C)N(C)C(=O)NC1c1cc(OC)ccc1OC (stereo not drawn) | -8
O=C(c1cccc([N+](=O)[O-])c1)N1CCN(c2cccc(C(F)(F)F)c2)CC1 | 2.2
CC1=NN(c2ccccc2)C(=O)C1C=C1C(=O)NC(=S)NC1=O (stereo not drawn) | -2.6
COc1ccc2nc(NC(=O)c3ccccc3OC)sc2c1 | 4.1
CSc1nc2sc3c(c2c(=O)[nH]1)CCN(Cc1ccccc1)C3 | 81
N/C(=N\OC(=O)c1cccc(Br)c1)c1cccc([N+](=O)[O-])c1 | -3.8
COc1ccc(/C(C)=N/NC(=O)c2cccc(Cl)c2)c(OC)c1 | -3.5
O=C(Cc1ccc(Cl)cc1)Nc1cccnc1 | 13.5
CCN1C(=O)CC(N2CCN(c3ccc(Cl)cc3)CC2)C1=O (stereo not drawn) | -4.1

Structure (SMILES) | displacement [%]
O=C(CSCc1cccc(Br)c1)NCc1ccco1 | 1
O=C(CSCc1ccc(Br)cc1)N/N=C/c1ccc(Sc2ccccn2)o1 | -17.7
COc1ccc(CC(=O)Nc2ccc(Br)cc2C)cc1OC | 5.8
Cc1ccc(OCc2nnc(NC(=O)OCC(C)C)s2)c(C)c1 | -4.7
O=C(Nc1ccc(NC(=O)c2cccnc2)cc1)c1ccc(NC(=O)c2cccnc2)cc1 | 3.4
CC(C)Cc1cc(-c2ccco2)c(C#N)c(N)n1 | 12.5
CC(C)CCNC(=O)C(=O)Nc1nccs1 | 7.1
Cc1cc(C)nc(SCC(=O)N/N=C/c2cc([N+](=O)[O-])ccc2O)n1 | -14.6
Brc1ccc2nc(N3CCNCC3)nc(-c3ccccc3)c2c1 | -8.1
CCOc1ccc2cc(S(=O)(=O)n3ccnc3C)ccc2c1 | 0.4
COCCNC(=O)COc1ccc(Br)c(C)c1 | -6.3
O=C(CSC1CC(=O)N(c2cc(Cl)cc(Cl)c2)C1=O)Nc1ccc(Br)cc1 (stereo not drawn) | 11.1
O=C(NCc1ccccn1)C(=O)N/N=C/c1ccccc1F | -3.6
O=C(Nc1ccc(I)cc1)C1CC=CCC1C(=O)OCC(Cl)=C(Cl)Cl (stereo not drawn) | -2.4
CN(C)CCNCC12CC3CC(CC(C3)C1)C2 | -3.1
COc1ccc(NC(=S)NC(=O)c2cccs2)cc1 | -9.3
CN1C(=O)/C(=C\c2ccccc2OCCOCCOc2ccccc2)SC1=S | 3.3
O=C(NCCN1CCOCC1)c1nn2c(C(F)(F)F)cc(-c3ccccc3)nc2c1Cl | -0.7
COc1ccc(N2C(=O)CC(NCCc3ccc(OC)c(OC)c3)C2=O)cc1 (stereo not drawn) | 9.1
Cc1ccc(-c2ccc(OCC(=O)Nc3ccccc3[N+](=O)[O-])cc2)cc1 | -3.2
Cc1cc(C)c2nc3s/c(=C\c4ccc(Cl)cc4)c(=O)n3c2c1 | -7.8
Cc1cc2oc(=O)cc(C)c2cc1NC(=O)c1ccccc1 | 40.8
COc1cc(OC)c(OC)cc1C=NCC1OCCc2ccccc21 (stereo not drawn) | 9.8
